# Data reported in PubChem BioAssay AID504832 (National Center for Advancing Translational Sciences (NCATS), 2011).
# About 18,000 (5.8%) of roughly 310,000 compounds were called active. The shares of active, inactive and inconclusive entries below differ from those in the screen. Calls come from the whole dose curve; as a rule, active = well fitted inhibition curve with a large enough effect; inconclusive = small, poorly fitted or top-dose-only effect, or another doubt; inactive = no such curve, though single readings can be large or run the other way. No potency is given beside an inconclusive call; the fits are too rough.
# Test: Primary qHTS for delayed death inhibitors of the malarial parasite plastid, 48 hour incubation
# Conditions: P. falciparum luciferase growth in erythrocytes; series mostly up to 28.7 µM; activity change, negative = inhibition: at the top concentration
# How it was run: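 Erythrocytes infected with P. falciparum carrying an integrated firefly luciferase reporter (2% hematocrit, 0.1% parasitemia final) were exposed to compounds in RPMI 1640 with 0.5% Albumax at 37 C, 5% CO2. Growth inhibition was scored as reduced luminescence.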
# % is set by controls: 0 for no effect and ±100 for the full control effect; potency is the fitted concentration of half-maximal effect; tags give direction and shape of the fitted curve.
SMILES,Potency,"activity change, negative = inhibition"
O=C(OCc1ccccc1)/C(=C/c1cccc2ccccc12)NC(=O)c1ccccc1,active: 6.57 µM,–
Cc1ccc(C(C)C)c(OCC(=O)NNC(=O)Cn2[nH]c(=O)c3ccccc3c2=O)c1,"inconclusive [inhibitor, single point]",–
Cc1ccc(NS(=O)(=O)c2cccc(C(=O)NCC(c3ccc(F)cc3)N3CCOCC3)c2)cc1 (configuration not stated),"inconclusive [inhibitor, single point]",–
CSc1ccc(/C=C/C(=O)c2ccc(NC(=O)C(C)C)cc2)cc1,–,inactive: -12%
Cc1cccc(OCC(=O)N(Cc2nnc(-c3ccccc3Cl)o2)C2CC2)c1,"inconclusive [inhibitor, single point]",–
C=CCn1c(=O)c2c(nc3n2CCCN3Cc2ccccc2)n(C)c1=O,"inconclusive [inhibitor, partial curve, poor fit]",–
Cc1ccc(S(=O)(=O)c2c(C)nn(C(C)(C)C)c2OC(=O)C(C)(C)C)cc1,"inconclusive [inhibitor, single point]",–
COc1ccccc1NC(=O)C1CCCN(S(=O)(=O)c2ccc3[nH]c(=O)ccc3c2)C1 (configuration not stated),"inconclusive [inhibitor, single point]",–
CCOC(=O)C1(Cc2cccc(OC)c2)CCN(Cc2csc(C(C)=O)c2)CC1,–,inactive: -14.8%
CC(C)(C)c1ccc(C(=O)NCC(=O)N2CCCCCC2)cc1,–,inactive: -0.0741%
CCOC(=O)C1CCN(Cc2cnc(NC(=O)OC)s2)CC1,"inconclusive [inhibitor, single point]",–
CC(=O)c1cccc(CN2CCCC(C(=O)c3ccc4c(c3)OCO4)C2)c1 (configuration not stated),"inconclusive [inhibitor, partial curve, poor fit]",–
Cc1cc(=O)oc2cc(OCC(=O)Nc3c(Cl)cccc3C(F)(F)F)ccc12,"inconclusive [inhibitor, single point]",–
Cc1cccc(C(=O)OCC(=O)c2c(N)n(CC(C)C)c(=O)n(C)c2=O)c1O,"inconclusive [inhibitor, full curve, poor fit]",–
Cc1ccc(Nc2nc(C(=O)N3CCC(C(=O)NCCN4CCOCC4)CC3)cs2)cc1,"inconclusive [inhibitor, single point]",–
O=C(CCc1nc2ccccc2c(=O)[nH]1)Nc1cccc(S(=O)(=O)N2CCCCC2)c1,"inconclusive [inhibitor, partial curve]",–
CCCCCCCCCCCCCC[N+](C)(C)Cc1ccccc1,active: 1.69 µM,–
Cc1ccc(NC(=O)Cn2ccnc2)cc1C,"inconclusive [inhibitor, full curve]",–
CS(=O)(=O)N1CCc2cc(C(=O)Nc3ccc(Br)cc3)ccc21,–,inactive: -8.39%
O=C(O)c1cccc(N/N=C/c2cccc3ccccc23)c1,–,inactive: 167%
CC(=C/C(=O)O)/C=C/c1ccco1,"inconclusive [inhibitor, partial curve]",–
O=C(NNc1c2ccccc2nc2ccccc12)c1cccc(O)c1,active: 13.1 µM,–
O=S(=O)(NC1CCCCC1)c1ccc(N2CCOCC2)nc1,"inconclusive [inhibitor, partial curve, poor fit]",–

SMILES,Potency,"activity change, negative = inhibition"
CC(Oc1ccc(F)cc1)C(=O)Nc1ccccc1N1CCCCC1 (configuration not stated),"inconclusive [inhibitor, partial curve]",–
O=C(COC(=O)c1cccs1)Nc1ccccc1[N+](=O)[O-],–,inactive: -9.76%
Cc1cc(C)cc(OCC(=O)Nc2cccc(-c3nnc(-c4ccco4)o3)c2)c1,"inconclusive [inhibitor, partial curve]",–
Cc1c(NC(=S)Nc2cccc(Cl)c2)c(=O)n(-c2ccccc2)n1C,"inconclusive [inhibitor, single point]",–
CCCCn1c(O)c(C(=O)/C=C/c2ccc3c(c2)OCO3)c(=O)[nH]c1=O,"inconclusive [inhibitor, single point]",–
O=C(CSc1nnc(-c2ccco2)n1-c1ccccc1)NCc1ccco1,–,inactive: 5.52%
Cc1cccc(COc2ccccc2C(=O)N(C)CC(=O)Nc2cccc(F)c2)c1,"inconclusive [inhibitor, single point]",–
CC(=O)N(/N=C1\Sc2ccccc2C1=O)c1cccc(C)c1,"inconclusive [inhibitor, full curve, poor fit]",–
CCCCCCCC(=O)Oc1ccc(C(=O)Nc2cc(C)on2)cc1,–,inactive: 99%
COc1ccc(Cc2nc(-c3ccncc3)no2)cc1,"inconclusive [inhibitor, single point]",–
CCOC(=O)/C=c1\s/c(=C(\C#N)C(=O)OCC)n(-c2ccccc2)c1=O,"inconclusive [inhibitor, single point]",–
O=C(CN1C(=O)NC(c2ccccc2)(c2ccccc2)C1=O)N1CCN(c2ccccc2F)CC1,active: 13.1 µM,–
Nc1ccc(C(=O)N/N=C\C=C\c2cccc([N+](=O)[O-])c2)cc1,"inconclusive [inhibitor, partial curve, poor fit]",–
CC1=NC(C#N)=C(C#N)NC(C)(C)C1,"inconclusive [inhibitor, full curve, poor fit]",–
COc1cc(O)c(C(CC(=O)N2CCOCC2)c2ccc3c(c2)OCO3)c(OC)c1 (configuration not stated),"inconclusive [inhibitor, single point]",–
COc1cccc(NC(=O)CN(C)C(=O)c2cc3ccccc3cc2OC)c1,"inconclusive [inhibitor, partial curve, poor fit]",–
CC(=O)N1CN2CN(C(C)=O)CC(C(=O)c3ccccc3)(C2)C1,"inconclusive [inhibitor, partial curve, poor fit]",–
O=C(CN(C(=O)c1ccccc1)N1C(=O)CCC1=O)c1cccs1,–,inactive: -12%
Cc1cccc(CN2CCN(C(c3ccccc3)c3ccc(Cl)cc3)CC2)c1 (configuration not stated),"inconclusive [inhibitor, single point]",–
O=[N+]([O-])c1cc([N+](=O)[O-])c(Oc2cc(F)ccc2F)cc1NN1CCCCC1,"inconclusive [inhibitor, full curve, poor fit]",–
COCCn1nnnc1C(c1cc2cc(OC)ccc2[nH]c1=O)N1CCC(Cc2ccccc2)CC1 (configuration not stated),active: 11.7 µM,–
CC(N=Cc1cc([N+](=O)[O-])ccc1O)c1ccccc1 (configuration not stated),"inconclusive [inhibitor, partial curve]",–
COc1cc(/C=C/C(=O)OCC(=O)Nc2oc(C)c3c(C)n[nH]c(=O)c23)ccc1OC(F)F,"inconclusive [inhibitor, single point]",–

SMILES,Potency,"activity change, negative = inhibition"
CC(=O)c1sc(NC(=O)C2CC(=O)N(Cc3ccccc3)C2)nc1-c1ccccc1 (configuration not stated),"inconclusive [inhibitor, single point]",–
O=S(=O)(c1ccc(Br)s1)N1CCN(c2ccccc2)CC1,–,inactive: -2.52%
Cc1c(C)n(C)c2ccc(C(=O)NCCc3ccco3)cc12,"inconclusive [inhibitor, single point]",–
O=C(Cc1ccc(-n2c(=O)c3ccccc3n(Cc3ccccc3Cl)c2=O)cc1)NCC1CCCO1 (configuration not stated),"inconclusive [inhibitor, single point]",–
Fc1cccc(Nc2cc(-n3cccn3)ncn2)c1,–,inactive: 206%
CCC(C)(C)NC(=O)C(c1ccc(C)cc1)N(Cc1cccnc1)C(=O)c1csnn1 (configuration not stated),"inconclusive [inhibitor, single point]",–
CCOc1ccc2oc(=O)cc(CN3CCN(C(=O)c4ccco4)CC3)c2c1,"inconclusive [inhibitor, single point]",–
CC1CC(C)CN(C(=O)c2ccc(CSc3nc4ccncc4[nH]3)cc2)C1 (configuration not stated),–,inactive: -19.8%
c1ccc(CCCOCCC2CO2)cc1 (configuration not stated),"inconclusive [inhibitor, partial curve]",–
OCCNCc1cc(Br)ccc1OCc1ccc(Cl)cc1Cl,"inconclusive [inhibitor, single point]",–
CCc1ccc(NC(=O)COc2coc(CN3CCN(c4ccccc4)CC3)cc2=O)cc1,active: 5.22 µM,–
CCOC(=O)CC1(NC(=O)c2cc(COc3cccc(OC)c3)on2)CCCCC1,"inconclusive [inhibitor, single point]",–
Cc1ccc(CCNC(=O)CC2Oc3ccc(C)cc3NC2=O)cc1 (configuration not stated),–,inactive: 6.91%
C/C(=N\NC(=O)c1cc(C)oc1C)c1ccc2ccccc2c1,–,inactive: 9.76%
COc1ccc(CN2CCN(Cc3ccc4cc(F)ccc4n3)CC2CCO)c(C)c1C (configuration not stated),"inconclusive [inhibitor, partial curve]",–
CN(Cc1nc(-c2cnccn2)no1)Cc1cccc2ccccc12,"inconclusive [inhibitor, partial curve]",–
CC1CCc2c(sc3nc(CN4CCOCC4)nc(N4CCc5ccccc5C4)c23)C1 (configuration not stated),active: 13.1 µM,–
CCCCC1CCC(C(=O)Nc2ccc(N3CCOCC3)cc2N2CCOCC2)CC1 (configuration not stated),"inconclusive [inhibitor, partial curve, poor fit]",–
CN(C)c1cc[n+](CC(=O)N2c3ccccc3Sc3ccccc32)cc1,"inconclusive [inhibitor, full curve]",–
Nc1cccc(CP(=O)(c2ccccc2)c2ccccc2)c1,"inconclusive [inhibitor, single point]",–
Cc1cc(C)cc(NC(=O)c2cnn(-c3ccccc3)c2C2CCNCC2)c1,"inconclusive [inhibitor, single point]",–
